Test results as given in the supplement of paper PMC11741623.
The other results are listed elsewhere or left out. Interaction screen of human proteins with wild-type SARS-CoV-2 proteins by split-DHFR complementation in yeast, 1 µg/mL methotrexate. Value = fitness of the pair (three or more lineages) minus that of the viral protein without a human partner, on a scale set by negative (0) and fused positive (1) controls, mean of up to three cultures; higher = more likely to interact. Active = false discovery rate below 0.05 (one-sided t-test) in at least one culture. Nearly all pairs are not hits, and differences among them are mostly noise (correlation between cultures about 0.3); most hits were seen in one culture only. Human sequences are the Swiss-Prot entries looked up by gene name; the clone may be another isoform. NSP2 values were corrected by the authors for a growth advantage. Listed are human proteins with a hit and a random twelfth of the others.

What was measured:
Test in all cases: yeast fitness gain over the viral ORF with no human partner (scaled fitness); higher = more likely to interact
SARS-CoV-2 E = target: SARS-CoV-2 E
Protocol: (§1)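 Split mouse DHFR complementation in pooled diploid yeast: human ORFeome clones carry one fragment and viral ORFs the other; barcoded lineages compete in 1 µg/mL methotrexate and fitness is read by barcode sequencing in up to three cultures.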

SARS-CoV-2 M = target: SARS-CoV-2 M
Protocol: as §1

SARS-CoV-2 N = target: SARS-CoV-2 N
Protocol: as §1

SARS-CoV-2 NSP1 = target: SARS-CoV-2 NSP1
Protocol: as §1

SARS-CoV-2 NSP10 = target: SARS-CoV-2 NSP10
Protocol: as §1

SARS-CoV-2 NSP12 = target: SARS-CoV-2 NSP12
Protocol: as §1

SARS-CoV-2 NSP13 = target: SARS-CoV-2 NSP13
Protocol: as §1

SARS-CoV-2 NSP14 = target: SARS-CoV-2 NSP14
Protocol: as §1

SARS-CoV-2 NSP15 = target: SARS-CoV-2 NSP15
Protocol: as §1

SARS-CoV-2 NSP16 = target: SARS-CoV-2 NSP16
Protocol: as §1

SARS-CoV-2 NSP2 = target: SARS-CoV-2 NSP2
Protocol: as §1

SARS-CoV-2 NSP4 = target: SARS-CoV-2 NSP4
Protocol: as §1

SARS-CoV-2 NSP5 = target: SARS-CoV-2 NSP5
Protocol: as §1

SARS-CoV-2 NSP6 = target: SARS-CoV-2 NSP6
Protocol: as §1

SARS-CoV-2 NSP7 = target: SARS-CoV-2 NSP7
Protocol: as §1

SARS-CoV-2 NSP8 = target: SARS-CoV-2 NSP8
Protocol: as §1

SARS-CoV-2 NSP9 = target: SARS-CoV-2 NSP9
Protocol: as §1

SARS-CoV-2 ORF10 = target: SARS-CoV-2 ORF10
Protocol: as §1

SARS-CoV-2 ORF3A = target: SARS-CoV-2 ORF3A
Protocol: as §1

SARS-CoV-2 ORF3B = target: SARS-CoV-2 ORF3B
Protocol: as §1

SARS-CoV-2 ORF6 = target: SARS-CoV-2 ORF6
Protocol: as §1

SARS-CoV-2 ORF7A = target: SARS-CoV-2 ORF7A
Protocol: as §1

SARS-CoV-2 ORF7B = target: SARS-CoV-2 ORF7B
Protocol: as §1

SARS-CoV-2 ORF8 = target: SARS-CoV-2 ORF8
Protocol: as §1

SARS-CoV-2 ORF9B = target: SARS-CoV-2 ORF9B
Protocol: as §1

[1] = target: SARS-CoV-2 ORF9Bwu (the 73-codon ORF)
Protocol: as §1

SARS-CoV-2 S = target: SARS-CoV-2 S
Protocol: as §1

Measured: yeast fitness gain

B1: NUDT16, Q96DE0 (protein)
chain: MAGARRLELGEALALGSGWRHACHALLYAPDPGMLFGRIPLRYAILMQMRFDGRLGFPGGFVDTQDRSLEDGLNRELREELGEAAAAFRVERTDYRSSHVGSGPRVVAHFYAKRLTLEELLAVEAGATRAKDHGLEVLGLVRVPLYTLRDGVGGLPTFLENSFIGSAREQLLEALQDLGLLQSGSISGLKIPAHH
inactive: SARS-CoV-2 E 0.0632 | SARS-CoV-2 M -0.0132 | SARS-CoV-2 N 0.0532 | SARS-CoV-2 NSP1 = -0.0337 | SARS-CoV-2 NSP10 = 0.0487 | SARS-CoV-2 NSP12 = -0.00445 | SARS-CoV-2 NSP13 = 0.0427 | SARS-CoV-2 NSP14 = 0.0517 | SARS-CoV-2 NSP15 = 0.00398 | SARS-CoV-2 NSP16 = 0.0277 | SARS-CoV-2 NSP2 = -0.143 | SARS-CoV-2 NSP4 = 0.0634 | SARS-CoV-2 NSP5 = 0.0486 | SARS-CoV-2 NSP6 = -0.0222 | SARS-CoV-2 NSP7 = 0.0144 | SARS-CoV-2 NSP8 = -0.0277 | SARS-CoV-2 NSP9 = -0.156 | SARS-CoV-2 ORF10 = 0.043 | SARS-CoV-2 ORF3A 0.0209 | SARS-CoV-2 ORF3B 0.0255 | SARS-CoV-2 ORF6 = 0.0152 | SARS-CoV-2 ORF7A -0.00909 | SARS-CoV-2 ORF7B 0.033 | SARS-CoV-2 ORF8 = 0.000496 | SARS-CoV-2 ORF9B 0.00653 | [1] 0.0381 | SARS-CoV-2 S 0.0168

B2: RASL10A, Q92737 (protein)
chain: MGGSLRVAVLGAPGVGKTAIIRQFLFGDYPERHRPTDGPRLYRPAVLLDGAVYDLSIRDGDVAGPGSSPGGPEEWPDAKDWSLQDTDAFVLVYDICSPDSFDYVKALRQRIAETRPAGAPEAPILVVGNKRDRQRLRFGPRRALAALVRRGWRCGYLECSAKYNWHVLRLFRELLRCALVRARPAHPALRLQGALHPARCSLM
inactive: SARS-CoV-2 E 0.0403 | SARS-CoV-2 M 0.00353 | SARS-CoV-2 N 0.0867 | SARS-CoV-2 NSP1 = 0.0425 | SARS-CoV-2 NSP10 = 0.0203 | SARS-CoV-2 NSP12 = 0.0176 | SARS-CoV-2 NSP13 = 0.0306 | SARS-CoV-2 NSP14 = -0.208 | SARS-CoV-2 NSP15 = 0.0939 | SARS-CoV-2 NSP16 = 0.0271 | SARS-CoV-2 NSP2 = -0.128 | SARS-CoV-2 NSP4 = 0.0227 | SARS-CoV-2 NSP5 = 0.00534 | SARS-CoV-2 NSP6 = 0.0472 | SARS-CoV-2 NSP7 = 0.0154 | SARS-CoV-2 NSP8 = -0.0207 | SARS-CoV-2 NSP9 = 0.027 | SARS-CoV-2 ORF10 = -0.0158 | SARS-CoV-2 ORF3A 0.0655 | SARS-CoV-2 ORF3B 0.0147 | SARS-CoV-2 ORF6 = -0.00665 | SARS-CoV-2 ORF7A 0.0546 | SARS-CoV-2 ORF7B -0.0387 | SARS-CoV-2 ORF8 = -0.0362 | SARS-CoV-2 ORF9B -0.0225 | [1] -0.0259 | SARS-CoV-2 S 0.0403

B3: PPM1B, O75688 (protein)
chain: MGAFLDKPKTEKHNAHGAGNGLRYGLSSMQGWRVEMEDAHTAVVGIPHGLEDWSFFAVYDGHAGSRVANYCSTHLLEHITTNEDFRAAGKSGSALELSVENVKNGIRTGFLKIDEYMRNFSDLRNGMDRSGSTAVGVMISPKHIYFINCGDSRAVLYRNGQVCFSTQDHKPCNPREKERIQNAGGSVMIQRVNGSLAVSRALGDYDYKCVDGKGPTEQLVSPEPEVYEILRAEEDEFIILACDGIWDVMSNEELCEYVKSRLEVSDDLENVCNWVVDTCLHKGSRDNMSIVLVCFSNAPKVSDEAVKKDSELDKHLESRVEEIMEKSGEEGMPDLAHVMRILSAENIPNLPPGGGLAGKRNVIEAVYSRLNPHRESDGASDEAEESGSQGKLVEALRQMRINHRGNYRQLLEEMLTSYRLAKVEGEESPAEPAATATSSNSDAGNPVTMQESHTESESGLAELDSSNEDAGTKMSGEKI
inactive: SARS-CoV-2 E 0.133 | SARS-CoV-2 M 0.101 | SARS-CoV-2 NSP10 = 0.0577 | SARS-CoV-2 NSP12 = 0.0874 | SARS-CoV-2 NSP13 = 0.0406 | SARS-CoV-2 NSP14 = 0.129 | SARS-CoV-2 NSP15 = 0.00511 | SARS-CoV-2 NSP16 = 0.00855 | SARS-CoV-2 NSP2 = -0.0431 | SARS-CoV-2 NSP4 = 0.0972 | SARS-CoV-2 NSP5 = -0.0118 | SARS-CoV-2 NSP6 = 0.00602 | SARS-CoV-2 NSP7 = 0.0177 | SARS-CoV-2 NSP8 = 0.0122 | SARS-CoV-2 NSP9 = 0.0221 | SARS-CoV-2 ORF10 = -0.0427 | SARS-CoV-2 ORF3A -0.00657 | SARS-CoV-2 ORF3B 0.00785 | SARS-CoV-2 ORF6 = 0.0138 | SARS-CoV-2 ORF7A -0.0125 | SARS-CoV-2 ORF7B -0.00404 | SARS-CoV-2 ORF8 = 0.0275 | SARS-CoV-2 ORF9B 0.0708 | [1] 0.0232 | SARS-CoV-2 S -0.0447

B4: PPY, P01298 (protein)
chain: MAAARLCLSLLLLSTCVALLLQPLLGAQGAPLEPVYPGDNATPEQMAQYAADLRRYINMLTRPRYGKRHKEDTLAFSEWGSPHAAVPRELSPLDL
inactive: SARS-CoV-2 E 0.0297 | SARS-CoV-2 M 0.00459 | SARS-CoV-2 N -0.0929 | SARS-CoV-2 NSP1 = 0.0445 | SARS-CoV-2 NSP10 = -0.00811 | SARS-CoV-2 NSP12 = 0.0234 | SARS-CoV-2 NSP13 = -0.0446 | SARS-CoV-2 NSP14 = -0.171 | SARS-CoV-2 NSP15 = -0.0347 | SARS-CoV-2 NSP16 = -0.0712 | SARS-CoV-2 NSP2 = -0.125 | SARS-CoV-2 NSP4 = -0.359 | SARS-CoV-2 NSP5 = 0.0311 | SARS-CoV-2 NSP6 = -0.00138 | SARS-CoV-2 NSP7 = -0.0141 | SARS-CoV-2 NSP8 = -0.154 | SARS-CoV-2 NSP9 = -0.0178 | SARS-CoV-2 ORF10 = -0.0877 | SARS-CoV-2 ORF3B -0.00817 | SARS-CoV-2 ORF6 = 0.0194 | SARS-CoV-2 ORF7A -0.066 | SARS-CoV-2 ORF7B -0.0668 | SARS-CoV-2 ORF8 = 0.0219 | SARS-CoV-2 ORF9B -0.0191 | [1] 0.0552 | SARS-CoV-2 S 0.0655
